Assay results reported in PubChem BioAssay AID302 (DTP/NCI, 2004).
Inconclusive results and toxic doses are left out. Certain results were filed several times, with different values. This list holds those alone. The source may hold further records. Results that share an entry repeat one measurement (runs, samples, wells, individuals or studies).

Test system: BALB/c mice, Madison 109 lung carcinoma i.m., survival
Test: NCI In Vivo Anticancer Drug Screen. Data for tumor model Madison 109 Lung Carcinoma (intramuscular) in BALB/CM mice
Settings: endpoint: median survival time; dose: 400.0 mg/kg/injection; schedule: Q01DX009 (ip); vehicle: saline; higher = longer survival
Experimental: The antitumor activity of compounds was measured in mice bearing transplantable tumors. Survival or tumor size were measured and the results are expressed as the measurement made in the treated group (T) divided by the measurement made in the vehicle treated control group (C). The tumor model used in this assay is Madison 109 Lung Carcinoma (intramuscular) in BALB/CM mice

## CN(C)C=O
  T/C: 104 % of control, 111 % of control, 160 % of control
